The whole screen tested about 350,000 compounds, of which about 9,900 (2.8%) were called active. This list was built around the results that the source calls inconclusive (neither active nor inactive); the mix of calls is not that of the screen. The call rests on the fitted dose curve; in most records, active means well fitted activation curve with a large enough effect; inconclusive means small, poorly fitted or top-dose-only effect; inactive means no such curve, though single readings can be large or run the other way. No potency is given beside an inconclusive call; the fits are too rough.
Experiment: A quantitative high throughput screen for small molecules that induce DNA re-replication in MCF 10a normal breast cells. Further: nearly all actives have a fitted effect of over 50% in size. On activity, positive = re-replication: % of control where 0% means no effect.
Conditions: MCF 10A DNA re-replication, Hoechst nuclear intensity, 48 h; activity, positive = re-replication: at 46.1 µM (top of the series)
Potency means the concentration at half of the fitted maximal effect; tags describe the fitted curve by direction and shape.

Compound | Potency | activity, positive = re-replication
O=C(NCc1cccc2ccsc12)c1cccs1 | inconclusive [activator, full curve, poor fit] | 
CCOC(=O)c1sc(NC(=O)CSc2nc3ccccc3o2)c(C(=O)OCC)c1C | inconclusive [activator, single point] | 
COc1ccc(/C=N/NC(=O)c2cc(OC)c(OC)c(OC)c2)cc1CN1CCc2cc(OC)c(OC)cc2C1C (stereo unspecified) | inconclusive [activator, single point] | 
CN(C(=O)COc1ccccc1C(=O)NCCOc1ccccc1)c1ccccc1 | active: 18.4 µM | 
CCOC(=O)Cc1csc(NC(=O)COC(=O)/C=C/c2ccc(OC)cc2)n1 | inconclusive [activator, single point] | 
CCC(=O)Nc1sc2c(c1C(N)=O)CCC2 |  | inactive: -10.7%
CCCCCCSC1=C(C#N)C(c2ccc(O)cc2)CC(=O)N1 (stereo unspecified) | inconclusive [activator, single point] | 
Cc1cccc(-c2cc3c(nn2)-c2ccccc2C3=O)c1 | inconclusive [activator, single point] | 
CCSc1nnc(NC(=O)c2nc(-c3ccccc3)n(-c3ccccc3)n2)s1 | active: 10.3 µM | 
COc1ccc2[nH]cc(CCNC(=O)Nc3ccccc3C)c2c1 |  | inactive: 1%
C/C(=N\Nc1cc(N2CCCCC2)nc(C)n1)c1ccc(Br)cc1 | active: 11.6 µM | 
OCCCCNCc1ccc(OCc2ccc(Cl)cc2)cc1 | inconclusive [activator, single point] | 
CCOC(=O)Cc1csc(NC(=S)NC(=O)c2ccccc2)n1 |  | inactive: 2.31%
Cc1ccc(-c2nc(N/N=C/c3cccc([N+](=O)[O-])c3)c3ccccc3n2)cc1 | inconclusive [activator, full curve, poor fit] | 
O=C(COC(=O)c1ccc(Cl)cc1)NCC1CCCCC1 |  | inactive: 0.566%
C/C(=N\NC(=O)COc1ccc(C)cc1Br)c1cc([N+](=O)[O-])cs1 | active: 8.2 µM | 
COc1ccc(C)cc1NC(=O)CN1CCN(CC(=O)Nc2ccccc2F)CC1 |  | inactive: -0.954%
CCc1cc2ccc(C)cc2nc1SCC(=O)Nc1cc(C)on1 |  | inactive: 10.5%

Compound | Potency | activity, positive = re-replication
Cc1ccc(Cl)cc1N1CCN(C(=O)Cc2csc(Nc3nc(=S)[nH]c4ccccc34)n2)CC1 | inconclusive [activator, full curve, poor fit] | 
Cc1c(C(=O)N(C)C)sc(NC(=O)c2cccc([N+](=O)[O-])c2)c1C#N | inconclusive [activator, partial curve, poor fit] | 
COc1cc(OC)cc(C(=O)N[C@H](C(=O)N2CCc3ccccc32)C(C)C)c1 | inconclusive [activator, single point] | 
COc1ccc(-c2csc(C)n2)cc1Br | inconclusive [activator, full curve, poor fit] | 
CC1=C(C)/C(=N\OS(=O)(=O)c2ccccc2)C=CC1=O | inconclusive [activator, full curve, poor fit] | 
O=C(CCCn1c(=O)[nH]c2cc(Cl)ccc2c1=O)NC1CCCCCC1 |  | inactive: 0.227%
COc1ccc(/C=C/c2c(-c3cccc(C)c3)oc3ccc(-c4ccc5c(c4)OCO5)cc23)cc1 | inconclusive [activator, full curve, poor fit] | 
CC(C)(C)c1ccc(C(=O)N2CCN(CCNC(=O)C(=O)Nc3ccc(F)cc3)CC2)cc1 | inconclusive [activator, partial curve, poor fit] | 
Cc1ccc(S(=O)(=O)Nc2ccc3c4c(cccc24)CC3)c(C)c1 | inconclusive [activator, full curve, poor fit] | 
O=C(O)CNS(=O)(=O)c1cccc(Cl)c1 |  | inactive: 1.87%
O=C(CCl)Nc1ccccc1C(=O)Nc1ccc2c(c1)OCO2 | inconclusive [activator, single point] | 
CC1CC(=O)N(CC(=O)Nc2ccc(Br)cc2)c2ccccc2S1(=O)=O (stereo unspecified) |  | inactive: 6.52%
COc1ccc(C(=O)/C=C/c2ccc(O)cc2)c(O)c1CC=C(C)C | active: 23.1 µM | 
O=C(COC(=O)c1ccccc1NC(=O)c1ccco1)NCCC1=CCCCC1 | inconclusive [activator, single point] | 
Cc1ccc(NC(=O)c2cc(-c3ccc(C)c(C)c3O)n[nH]2)cc1C |  | inactive: 12.9%
CCOc1ccc(NC(=O)CN2C(=O)NC(CCSC)C2=O)cc1 (stereo unspecified) |  | inactive: 19%
Cc1[nH]nc2c1C(C(C)C)C(C#N)=C(N)O2 (stereo unspecified) | inconclusive [activator, partial curve, poor fit] | 
Cc1cccc(-n2c(N)c(-c3nc4ccccc4n3C)c3nc4ccccc4nc32)c1 | inconclusive [activator, partial curve, poor fit] | 
